Measured values published in the supplement of paper PMC4967469.

Columns and labels:
Assay in all cases: Viability of human cancer cell lines after 72 h of drug (GDSC screen)
SB 216763 = compound: Cn1cc(C2=C(c3ccc(Cl)cc3Cl)C(=O)NC2=O)c2ccccc21 [SB 216763]; details: top dose 10 µM; top dose inferred
Method: (§1)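 Human cancer cell lines in 384-well plates, medium with 10% serum, drug for 72 h over a 256-fold dose range (nine 2-fold or five 4-fold steps up to the top dose). Adherent lines were fixed and stained with the nucleic acid dye Syto60, suspension lines read with resazurin; signal relative to control wells, capped at 0 and 100%. One two-parameter sigmoid per drug and line, fitted in a mixed model over all curves with the slope shared within a line.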

Pazopanib = compound: Cc1ccc(Nc2nccc(N(C)c3ccc4c(C)n(C)nc4c3)n2)cc1S(N)(=O)=O [Pazopanib]; details: top dose 8 µM
Method: as §1

GDC0941 = compound: CS(=O)(=O)N1CCN(Cc2cc3nc(-c4cccc5[nH]ncc45)nc(N4CCOCC4)c3s2)CC1 [GDC0941]; details: top dose 4 µM; screen: GDSC drug entry 1527; top dose inferred
Method: as §1

CEP-701 = compound: C[C@]12O[C@H](C[C@]1(O)CO)n1c3ccccc3c3c4c(c5c6ccccc6n2c5c31)CNC4=O [CEP-701]; details: top dose 2 µM; top dose inferred
Method: as §1

AR-42 = compound: CC(C)[C@H](C(=O)Nc1ccc(C(=O)NO)cc1)c1ccccc1 [AR-42]; details: top dose 5.12 µM; top dose inferred
Method: as §1

Row | Cell Line | AUC (SB 216763) | IC50 (SB 216763) [nM] | AUC (Pazopanib) | IC50 (Pazopanib) [nM] | AUC (GDC0941) | IC50 (GDC0941) [nM] | AUC (CEP-701) | IC50 (CEP-701) [nM] | AUC (AR-42) | IC50 (AR-42) [nM]
1 | G-MEL (melanoma, adherent) | 0.971 | > 10000 | 0.791 | 3550 | 0.93 | > 4000 | 0.402 | 67.5 | 0.57 | 496
2 | 8305C (thyroid, adherent) | 0.977 | > 10000 | 0.933 | > 8000 | 0.744 | 1590 | 0.694 | 524 | 0.958 | > 5120
3 | C-33-A (cervix, adherent) | 0.986 | > 10000 | 0.916 | > 8000 | 0.859 | 3350 | 0.732 | 575 | 0.324 | 103
4 | CFPAC-1 (pancreas, adherent) | 0.956 | > 10000 | 0.917 | > 8000 | 0.709 | 1070 | 0.868 | > 2000 | 0.968 | > 5120
5 | KMRC-20 (kidney, adherent) | 0.985 | > 10000 | 0.942 | > 8000 | 0.885 | > 4000 | 0.682 | 408 | 0.863 | 4550
6 | TGBC11TKB (stomach, adherent) | 0.99 | > 10000 | 0.99 | > 8000 | 0.959 | > 4000 | 0.85 | 1250 | 0.591 | 550
7 | HCC1954 (breast, adherent) | 0.985 | > 10000 | 0.936 | > 8000 | 0.801 | 2340 | 0.923 | > 2000 | 0.699 | 1280
8 | Daoy (medulloblastoma, adherent) | 0.957 | > 10000 | 0.84 |  | 0.812 | 1900 | 0.766 | 674 | 0.285 | 84.3
9 | CHL-1 (melanoma, adherent) | 0.948 | > 10000 | 0.959 | > 8000 | 0.645 | 615 | 0.238 | 23.1 | 0.417 | 192
10 | SF295 (glioma, adherent) | 0.969 | > 10000 | 0.981 | > 8000 | 0.776 | 1730 | 0.696 | 467 | 0.583 | 550
11 | M14 (melanoma, adherent) | 0.986 | > 10000 | 0.866 | 7790 | 0.94 | > 4000 | 0.382 | 58.1 | 0.694 | 1160
12 | OVISE (ovary, adherent) | 0.963 | > 10000 | 0.98 | > 8000 | 0.789 | 2450 | 0.636 | 337 | 0.664 | 1070
13 | JHH-1 (liver, adherent) | 0.985 | > 10000 | 0.669 | 1540 | 0.569 | 393 | 0.79 | 973 | 0.294 | 79.6
14 | CP50-MEL-B (melanoma, adherent) | 0.976 | > 10000 | 0.979 | > 8000 | 0.879 | > 4000 | 0.731 | 565 | 0.586 | 549
15 | AN3-CA (endometrium, adherent) | 0.975 | > 10000 | 0.203 | 59.5 | 0.518 | 282 | 0.784 | 938 | 0.722 | 1460
16 | NCI-H1651 (lung adenocarcinoma, adherent) | 0.983 | > 10000 | 0.916 | > 8000 | 0.967 | > 4000 | 0.89 | > 2000 | 0.577 | 529
17 | UACC-62 (melanoma, adherent) | 0.967 | > 10000 | 0.987 | > 8000 | 0.664 | 711 | 0.814 | 1080 | 0.682 | 1020
18 | HSC-2 (head and neck, adherent) | 0.989 | > 10000 | 0.989 | > 8000 | 0.726 | 1030 | 0.863 | 1520 | 0.803 | 2320
19 | TT2609-C02 (thyroid, adherent) | 0.986 | > 10000 | 0.745 | 2660 | 0.968 | > 4000 | 0.33 | 40.4 | 0.527 | 381
20 | MFE-296 (endometrium, adherent) | 0.985 | > 10000 | 0.536 | 633 | 0.735 | 1240 | 0.493 | 120 | 0.89 | > 5120
21 | OE33 (oesophagus, adherent) | 0.893 | > 10000 | 0.962 | > 8000 | 0.751 | 1540 | 0.872 | > 2000 | 0.638 | 834
22 | ECC10 (stomach, suspension) | 0.985 | > 10000 | 0.92 | > 8000 | 0.725 | 1130 | 0.501 | 126 | 0.721 | 1400
23 | SW1710 (bladder, adherent) | 0.929 | > 10000 | 0.774 | 3240 | 0.649 | 654 | 0.498 | 124 | 0.586 | 555
24 | PCI-6A (head and neck, adherent) | 0.971 | > 10000 | 0.988 | > 8000 | 0.949 | > 4000 | 0.433 | 82.1 | 0.351 | 125
25 | BICR10 (head and neck, adherent) | 0.952 | > 10000 | 0.877 | > 8000 | 0.639 | 644 | 0.525 | 148 | 0.923 | > 5120
26 | JHH-2 (liver, adherent) | 0.984 | > 10000 | 0.986 | > 8000 | 0.822 | 2580 | 0.756 | 732 | 0.592 | 583

By IC50 is meant the dose at which the fit gives 50% viability; where the fit passes the top or lowest dose, that dose stands as a limit. AUC sums up the same curve from the lowest dose to the 256-fold higher top dose: 1 means no effect, lower means more sensitive. For some of these results: A top dose marked as inferred comes from the curve model; the source does not state it. For some of these results: An entry number marks a drug with two screens in the source, which often give different values.
